Hit rate of the full screen: of about 44,000 compounds, about 340 (0.77%) were called active. Not shown: some 5% with an inconclusive outcome. Calls follow the shape of the dose curve; as a rule, active = well fitted inhibition curve with a large enough effect; inconclusive = small, poorly fitted or top-dose-only effect; inactive = flat fitted curve, though single readings scatter. The list shows a part of the results.
assay: Acumen qHTS Assay for Inhibitors of the mTORC1 Signaling Pathway in MEF (Tsc2-/-, p53-/-) Cells: Sytravon; details: phospho-rpS6 immunofluorescence/PI, 24 h; series mostly up to 38.3 µM; activity change, negative = inhibition: at the top concentration; also: nearly all actives have a fitted effect of over 50% in size
Procedure, shortened: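 Readout is phospho-S6 Alexa 488 signal normalized to PI per well, reported as % active cells with thresholds set from rapamycin (7.5 nM) and DMSO controls. Cells: Tsc2-/-, p53-/- MEFs, 24 hrs compound at 37 C; PI cell number serves as viability.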

Compound	activity change, negative = inhibition
CN(C)c1ccc(CN(CC2CCCO2)C(=O)c2ccc(Br)cc2)cc1 (stereo not given)	inactive: 2.83%
Cc1ccc2[nH]c3c(=O)n(CC(=O)N4CCN(c5cccc(C(F)(F)F)c5)CC4)ncc3c2c1	inactive: -3.13%
CCOc1ccc(N2C(=O)N(Cc3c(F)cccc3Cl)c3ccccc3S2(=O)=O)cc1	inactive: -6.79%
COc1cccc(CNC(=O)CN2C(=O)CSc3c2c(C)nn3-c2ccccc2)c1	inactive: -4.18%
Cc1ccc(-n2c(=O)c3ccc(C(=O)NCc4ccccc4Cl)cc3n(CC(=O)Nc3cccc(F)c3)c2=O)cc1	inactive: 0.981%
Cc1ccc2[nH]c(CSc3nnc(COc4ccccc4C)n3C)cc(=O)c2c1	inactive: -14.2%
O=C(COCc1cc(-c2cccs2)on1)Nc1ccc(OC(F)(F)F)cc1	inactive: -2.57%
CCCCOc1ccc(NC(=O)Cn2nnnc2-c2ccccc2F)cc1	inactive: 0.999%
Cc1cc2c(cc1C)NC(CC(=O)Nc1ccccc1SC(F)(F)F)C(=O)N2 (stereo not given)	inactive: -17.5%
COc1cc(OC)c(NC(=O)Cn2cnc3sc(C)c(S(=O)(=O)N4CCN(C)CC4)c3c2=O)cc1Cl	inactive: -0.962%
Cc1ccc(S(=O)(=O)c2nc(-c3ccco3)oc2SCC(C)C)cc1	inactive: -11.8%
COc1ccc2ncc3c(-c4ccc(C)c(C)c4)nn(CC(=O)NC4CCCCC4)c3c2c1	inactive: -0.476%
CCc1ccc(NC(=O)c2nn(-c3ccc(C)cc3)c(=O)n(C)c2=O)cc1	inactive: 2.97%
CC(C)(C)OC(=O)N1CCC(c2c(C(=O)Nc3ccc4c(c3)OCCO4)cnn2-c2ccccc2)CC1	inactive: 3.92%
COC(=O)NCc1c(C)nn(-c2ccccc2)c1-n1cccc1	inactive: -10.4%
COc1ccc(CNC(=O)c2cc3c(s2)-c2c(C)cccc2OC3)cc1	inactive: 0.0447%
CCOC(=O)c1oc2c(c1C)-c1nn(Cc3ccccc3Cl)cc1CC2	inactive: -2.52%
Cc1ccc(C)c(NC(=O)C(=O)NCCc2csc3nc(-c4ccccc4C)nn23)c1	inactive: -9.22%
Cn1c(=O)n(-c2cccc(Cl)c2)c(=O)c2sc3ccccc3c21	inactive: -18.4%
Cc1cc(NC(=O)Cn2nc(C)n3cccc3c2=O)ccc1Br	inactive: -6.53%
CCOC(=O)N1CCC2(CC1)OC(=O)C(C)=C2C(=O)NCc1cccc(OC)c1	inactive: -1.45%
COc1ccc(NC(=O)CC2C(=O)N(c3ccc(C)cc3)C(=O)N2Cc2cccnc2)cc1 (stereo not given)	inactive: -17.4%
CNC(=O)c1sc2ncccc2c1-n1cccc1	inactive: 1.37%
Cc1cccc(-n2ncc(C(=O)NCc3ccccn3)c2C2CCN(C(=O)OC(C)(C)C)CC2)c1	inactive: 5.18%

Compound	activity change, negative = inhibition
CCCCN1C(=O)CN(C2CCCCC2)C(=O)C1c1ccc(OC(C)C)c(OC)c1 (stereo not given)	inactive: 4.2%
CCN1CCN(Cc2c(O)ccc3c(C)c(-c4ccccc4)c(=O)oc23)CC1	inactive: -0.633%
COc1ccc(CNc2cc(-c3ccc(OC)cc3)nc3nncn23)cc1	inactive: -18.1%
O=C(CSc1nc2c(c(=O)[nH]1)CCCC2)Nc1ccc(Br)cc1	inactive: -0.589%
Cc1ccc(C)c(N2CCN(c3nc4ccccc4n4c(C)nnc34)CC2)c1	inactive: 4.36%
Cc1ccc(NC(=O)C(c2ccccc2)N2Cc3ccccc3C2=O)cc1Cl (stereo not given)	inactive: 4.78%
Cc1ccc(NC(=O)Cn2c(=O)n(CCC(=O)NCc3ccc4c(c3)OCO4)c(=O)c3sccc32)c(C)c1	inactive: 10.3%
Cc1ccccc1CNC(=O)c1oc2c(c1C)-c1[nH]ncc1CC2	inactive: 0.778%
Cc1ccccc1Nc1nn2c(=O)c3ccc(C(=O)NCCc4ccc(Cl)cc4)cc3nc2s1	inactive: -2.52%
Cc1ccc2nc(Cl)c3cc(C(=O)N4CCCCC4C)sc3c2c1 (stereo not given)	inactive: -4.9%
CC(C)C1C(=O)Nc2ccc(S(=O)(=O)NCCc3ccc(Cl)cc3)cc21 (stereo not given)	inactive: 1.41%
COc1ccc(Cl)cc1NC(=O)CN1C(=O)C(C)(C)c2cc(S(=O)(=O)N3CCCCC3)ccc21	inactive: -1.42%
Cc1cccc(-n2ncc(C(=O)N3CCN(c4ccc(C)cc4C)CC3)c2C2CCN(C(=O)OC(C)(C)C)CC2)c1	inactive: -8.67%
Cc1ccsc1CN(C(=O)c1oc2ccc(Br)cc2c1C)C1CCS(=O)(=O)C1 (stereo not given)	inactive: -7.74%
Cc1cn(C)c(CC(=O)NCc2ccccc2)c1C(=O)O	inactive: -1.78%
CCOc1ccc(Nc2c(S(=O)(=O)c3ccc(Cl)cc3)cnc3ccc(OCC)cc23)cc1	inactive: -4.15%
CCN1c2ccccc2-c2nc(SCC(=O)NCc3ccc(Cl)cc3)ncc2S1(=O)=O	inactive: 0.724%
CCOc1ccc(C2c3c(oc4ccc(C)cc4c3=O)C(=O)N2CCCN2CCOCC2)cc1 (stereo not given)	inactive: -2.79%
O=C(CC1C(=O)N(c2ccccc2)C(=O)N1CCc1cccs1)Nc1ccc(F)cc1 (stereo not given)	inactive: -2.14%
O=C(CCCn1c(=O)c2cccn2c2cccnc21)NCc1ccccc1Br	inactive: -10.2%
CSc1ncc(C(=O)N2CCN(c3cccc(Cl)c3)CC2)c(C)n1	inactive: -0.777%
Cc1c(C)n(Cc2ccc(F)cc2)c2ccc(C(=O)NCc3ccco3)cc12	inactive: -17.8%
CCOc1ccc(CCNC(=O)Cn2nnc(-c3ccccc3Cl)n2)cc1OCC	inactive: 3.88%
O=C(NCCN1CCN(c2cccc(Cl)c2)CC1)Nc1ccccc1C(F)(F)F	inactive: -1.26%

Compound	activity change, negative = inhibition
Cc1ccc(CNc2nc(-c3ccco3)nn2S(=O)(=O)c2ccc3ccccc3c2)cc1	inactive: -0.805%
O=C(CSc1ncc(-c2ccccc2)[nH]1)Nc1ccc(Cl)cc1	inactive: -28.2%
Cc1ccc(S(=O)(=O)Nc2cc3c(cc2NCc2ccccc2)n(C)c(=O)n3C)cc1	inactive: 1.15%
O=C(Cn1c(=O)nc(-c2ccccc2)c2cc(Cl)ccc21)N1CCN(c2ccccc2F)CC1	inactive: 3.07%
CC(C)COc1ccc(C(=O)N2CCCCC2CCN2CCCCC2)cc1 (stereo not given)	inactive: -5.76%
COc1ccc(CCNC(=O)c2cnn(-c3cccc(C)c3)c2C2CCN(C(=O)OC(C)(C)C)CC2)cc1OC	inactive: -0.561%
COc1cccc2c1ncc1c(-c3ccc(C)cc3)nn(-c3ccc(F)cc3)c12	inactive: 0.604%
Cc1cccc(-c2nnn3c2nc(NCc2ccc4c(c2)OCO4)c2ccccc23)c1	inactive: -10.8%
CC(=O)c1ccc(NC(=O)c2noc3c2CSc2ccccc2-3)cc1	inactive: 0.228%
Cc1ccc(Cl)cc1N1CCN(C(=O)c2c(C)oc3ncnc(N4CCCCC4)c23)CC1	inactive: 1.88%
CCc1cc(C(=O)Nc2sc(C)c(CC)c2C#N)no1	inactive: -17.2%
CCc1ccc(CN2CCc3nc(N4CCN(c5ccccc5F)CC4)ncc3C2)cc1	inactive: 1.97%
CCCCOc1cccc(C(=O)Nc2cc(NC(=O)c3ccco3)ccc2OC)c1	inactive: -0.37%
COc1cccc(NC(=O)CCc2c(C)nc3nc(CNC(=O)c4cccc(F)c4)nn3c2C)c1	inactive: -1.69%
CCc1ccc(C2=C(C)C(N3CCC(C(=O)NCc4ccccc4)CC3)=NS2(=O)=O)cc1	inactive: 0.463%
Cc1ccc(CNC(=O)c2c(O)nc3cc(C)ccn3c2=O)cc1	inactive: 0.552%
COc1ccc(-c2cnc(C)o2)cc1S(=O)(=O)Nc1c(C)cc(C)cc1C	inactive: 0%
CC(c1ccccc1)n1cc2c(c1-c1ccccc1Br)c(=O)n(C)c(=O)n2C (stereo not given)	inactive: -12.2%
C#CCOc1ccc(-c2nnc(Nc3ccc(NC(C)=O)cc3)c3ccccc23)cc1	inactive: -3.03%
CCOC(=O)N1CCC(NC(=O)c2cnn(-c3cccc(F)c3)c2-n2cccc2)CC1	inactive: 10%
Cc1c(Cl)cccc1NC(=O)C1CCCN(c2ncnc3onc(C)c23)C1 (stereo not given)	inactive: 4.71%
NS(=O)(=O)c1ccc(CCNc2ncnc3c2cnn3-c2cccc(Cl)c2)cc1	inactive: 2.67%
O=C(NCc1ccccc1Cl)c1ccc2c(c1)N(Cc1ccccc1)C(=O)CS2	inactive: 9.76%
CC1CCN(S(=O)(=O)c2ccc3c(c2)c(=O)c(C(=O)NC(C)c2ccccc2)cn3C)CC1 (stereo not given)	inactive: -1.09%

Compound	activity change, negative = inhibition
CN(CC(=O)Nc1ccccc1F)S(=O)(=O)c1ccc2c(c1)c(=O)n(C)c(=O)n2C	inactive: -13%
COc1ccc(CCC(=O)NCc2nc3cccnc3n2Cc2ccc(F)cc2)cc1	inactive: 1.66%
Cc1ccc(Cl)cc1N1CCN(C(=O)c2ccc3c(c2)CCN3S(=O)(=O)c2ccccc2)CC1	inactive: -4.13%
Cc1ccc(-c2nnc(Nc3cccc(O)c3)c3ccccc23)cc1S(=O)(=O)NCC1CCCO1 (stereo not given)	inactive: -10.8%
O=C(NCCc1ccccc1)c1ccc2c(c1)N(Cc1ccccc1)C(=O)c1ccccc1S2(=O)=O	inactive: 2.54%
O=C(NCCc1ccccc1)C1CCN(Cc2cc3ccccc3n2Cc2cccc(Cl)c2)CC1	inactive: -4.23%
COc1ccc(CNC(=O)c2cc(=O)[nH]c3ccc(S(=O)(=O)N4CCCC4)cc23)c(OC)c1	inactive: 7.58%
CC(=O)c1cccc(NC(=O)C(CC(C)C)NS(=O)(=O)c2ccc3c(c2)CCN3C(C)=O)c1 (stereo not given)	inactive: 0.293%
Cc1cc(NC(=O)CSc2nc(-c3ccccc3C)nc3c2c(=O)n(C)c(=O)n3C)no1	inactive: 3.29%
CCOc1cc(C(=O)Nc2cccc3cccnc23)cc(OCC)c1OCC	inactive: 1.95%
COc1ccc(Cl)cc1NC(=O)c1ccc2c(c1)CCN2S(C)(=O)=O	inactive: -6.6%
COc1ccc(-c2cc3nc(C)c(CCC(=O)N4CCN(c5ccc(F)cc5)CC4)c(C)n3n2)c(OC)c1	inactive: -18.8%
Cc1ccc(Nc2nc3ccccc3c3nnc(C)n23)c(C)c1	inactive: -7.18%
CC(=O)c1cccc(Nc2cc(C)nc3nc(Cc4ccccc4)nn23)c1	inactive: 2.42%
COc1ccccc1OCC(=O)NC1CC(=O)N(c2ccc3c(c2)OCCO3)C1 (stereo not given)	inactive: -10.2%
CCCCN(CCCC)CCNC(=O)CN1C(=O)CSc2ccc(S(=O)(=O)N3CCOCC3)cc21	inactive: 3.1%
CCOC(=O)c1c(C)n(-c2ccccc2)c2ccc(OC(=O)c3cccc(C)c3)cc12	inactive: 4.56%
COc1cccc(CNC(=O)c2ccc3c(=O)n4nc(Nc5ccccc5)sc4nc3c2)c1	inactive: -7.73%
CC(=O)c1cc(-c2ccc(F)cc2)n(CC(=O)NC2CCC(C)CC2)c1C (stereo not given)	inactive: 4.45%
CC(=O)c1cccc(NC(=O)Nc2nnc(N3CCCC3)s2)c1	inactive: -8.43%
Cc1oc2ncn(C)c(=O)c2c1C(=O)NCCCN1CCCCC1C (stereo not given)	inactive: 0.713%
CCCOc1ccc(CNC(=O)c2ccc(C)c(-n3c(C)nc4cccnc43)c2)cc1	inactive: -8.18%
COc1ccc(-n2nc(C(=O)Nc3ccc(Cl)cn3)c3c4ccccc4n(C)c3c2=O)cc1	inactive: -13.7%

— PubChem BioAssay AID493208 (National Center for Advancing Translational Sciences (NCATS), 2011)
